Source: article PMC4336329 (PLoS ONE, 2015)
The whole screen tested about 310,000 compounds, of which about 2,200 (0.71%) showed an effect of 50% or more. Effects have a minus sign here. Some of the results follow.

What follows are molecules tested against human ether-à-go-go-related gene (hERG) potassium channel (human, UniProt Q12809) (assay: primary screen, population patch clamp on CHO cells stably expressing hERG).
Sequence of human ether-à-go-go-related gene (hERG) potassium channel (Q12809 whole entry, looked up): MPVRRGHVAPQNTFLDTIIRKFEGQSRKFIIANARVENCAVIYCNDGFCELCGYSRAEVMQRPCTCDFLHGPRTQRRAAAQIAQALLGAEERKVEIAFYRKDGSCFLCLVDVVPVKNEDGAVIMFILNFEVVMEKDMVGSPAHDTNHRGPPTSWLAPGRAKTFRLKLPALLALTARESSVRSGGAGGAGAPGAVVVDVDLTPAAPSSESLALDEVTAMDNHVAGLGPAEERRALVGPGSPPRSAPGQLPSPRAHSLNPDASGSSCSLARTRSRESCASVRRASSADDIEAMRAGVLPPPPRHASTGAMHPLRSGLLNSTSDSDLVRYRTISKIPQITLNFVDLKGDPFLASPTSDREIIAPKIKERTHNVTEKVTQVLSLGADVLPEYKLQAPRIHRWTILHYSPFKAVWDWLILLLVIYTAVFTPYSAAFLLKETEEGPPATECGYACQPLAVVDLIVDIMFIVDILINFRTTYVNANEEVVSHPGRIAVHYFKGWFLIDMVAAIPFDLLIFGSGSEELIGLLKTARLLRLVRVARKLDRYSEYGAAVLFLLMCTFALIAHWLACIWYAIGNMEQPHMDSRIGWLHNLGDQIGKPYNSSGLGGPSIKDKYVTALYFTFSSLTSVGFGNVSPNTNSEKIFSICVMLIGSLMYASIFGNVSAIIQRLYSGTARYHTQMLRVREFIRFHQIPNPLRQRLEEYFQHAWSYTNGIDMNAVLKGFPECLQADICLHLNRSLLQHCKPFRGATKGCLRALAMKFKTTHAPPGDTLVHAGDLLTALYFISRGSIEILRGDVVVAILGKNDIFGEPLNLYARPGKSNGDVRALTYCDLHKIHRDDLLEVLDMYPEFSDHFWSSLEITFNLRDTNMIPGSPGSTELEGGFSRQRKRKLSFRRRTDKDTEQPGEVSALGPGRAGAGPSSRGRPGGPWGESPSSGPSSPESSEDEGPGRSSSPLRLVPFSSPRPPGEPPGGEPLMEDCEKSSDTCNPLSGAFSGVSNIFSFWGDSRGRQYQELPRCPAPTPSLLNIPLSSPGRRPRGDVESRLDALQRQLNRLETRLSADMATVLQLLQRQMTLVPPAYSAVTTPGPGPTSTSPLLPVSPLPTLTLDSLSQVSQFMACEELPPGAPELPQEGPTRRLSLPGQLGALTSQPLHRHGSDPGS

Row | SMILES | hERG current change (%, negative = inhibition) at 1uM
1 | COc1ccc(C/C(=N\OC(C)=O)c2ccc(OC)cc2)cc1 | 7.22%
2 | CCOc1ccc(CC(=NCCO)C2=C(O)CC(C)(C)CC2=O)cc1OCC | 5.81%
3 | CCN(CC)C(=O)c1ccc(C)c(Br)c1 | 9.24%
4 | O=c1[nH]c(=O)n(-c2ccc(F)cc2)c(O)c1/C=C1\C=Nc2ccccc21 | 7.47%
5 | CC1CN(CCCCOc2ccc3ccccc3c2)CC(C)O1 (stereo not drawn) | 3.17%
6 | COc1ccc(CNCCc2ccc(Cl)cc2)c(OC)c1OC.O=C(O)C(=O)O | -12.1%
7 | CC1CN(CN2C(=O)c3ccccc3C2=O)CC(C)O1 (stereo not drawn) | -5.09%
8 | N#CCCn1cc(C(=O)Nc2ccc([N+](=O)[O-])cc2)c(-c2cc3ccccc3o2)n1 | 17.8%
9 | CCOC(=O)c1c(C)[nH]c(C(=O)OCC(=O)c2ccc3c(c2)NC(=O)CO3)c1C | 8.92%
10 | COc1ccc2cc3cc(C(=O)N4CCN(C5CCCCC5)CC4)oc3nc2c1 | 13.4%
11 | Cc1ccccc1-n1ncc2c1CC(C)(C)CC2NC(=O)C1CCC1 (stereo not drawn) | 5.1%
12 | O=C(O)Cc1sc(Nc2cccc3ccccc23)nc1-c1ccc(Cl)cc1 | 19%
13 | Cc1cnc(C(=O)OCC(=O)NC2CCCCC2)cn1 | 8.33%
14 | Cc1nc2cc(NC(=O)NCc3ccccc3)ccc2o1 | 16.2%
15 | COc1cccc(CNCC(=O)Nc2ccc(N3CCOCC3)cc2)c1.O=C(O)C(=O)O | -0.489%
16 | Br.O=S1(=O)C[C@@H]2N=C(N/N=C/c3ccccc3)S[C@@H]2C1 | 15.5%
17 | CC(C)N1CCC(N2CCN(CCCc3ccccc3)CC2CCO)CC1 (stereo not drawn) | 10.1%
18 | O=C1c2cccc3cc([N+](=O)[O-])cc(c23)C(=O)N1CC1CCCO1 (stereo not drawn) | 3.98%
19 | CC(C)c1cc(-c2cc(-c3ccc(Cl)cc3)on2)nc(NCC2CC2)n1 | 11%
20 | Cc1cccc(C(=O)N/C(=C\c2ccco2)C(=O)N2CCCCCC2)c1 | 8.69%
21 | Cc1ccc([N+](=O)[O-])cc1S(=O)(=O)N(C(=O)c1ccncc1)c1ccc2oc3c(c2c1)CCCC3 | 10.9%
22 | COc1ccccc1C(=O)NC(=O)COC(=O)CCOc1ccc(C)cc1 | 13.7%
23 | O=C(COc1ccc(F)cc1)Nc1nnc(C2CCCCC2)s1 | 19.8%

Row | SMILES | hERG current change (%, negative = inhibition) at 1uM
24 | O=C(CSc1nc2ccccc2s1)Nc1ccc(C(=O)O)cc1 | 5.84%
25 | Cc1c(Cl)cccc1NC(=O)NC1CCCCC1 | 12.8%
26 | CCOCCc1c(O)nc(SCC)[nH]c1=O | 7.23%
27 | CCCCN(CCCC)c1ccc(C(=O)c2ccccc2C(=O)O)c(O)c1 | -50.5%
28 | CN(CC(=O)Nc1cc(S(=O)(=O)N2CCCC2)ccc1Cl)Cc1ccc2c(c1)OCO2 | 14.1%
29 | COc1cccc(-c2nc(-c3ccc4c(c3)NC(=O)CO4)cs2)c1 | -20.6%
30 | CCn1c(=O)cc(OCC(=O)Nc2cccc(C)n2)c2ccccc21 | -22.1%
31 | COCCn1cnc2c1c(=O)n(Cc1ccc(Br)cc1)c(=O)n2Cc1ccccc1 | 8.5%
32 | CCOC(=O)C1=NOC(Cn2cc(C#N)c(=O)n(C)c2=O)C1 (stereo not drawn) | 25.7%
33 | CC(COc1ccccc1)N(CCCl)Cc1ccccc1.Cl (stereo not drawn) | 7.86%
34 | O=C(Nc1cccc(Cl)c1)Nc1ccccc1C(=O)O | -2.47%
35 | CSc1ccccc1NC(=O)COc1ccccc1C | 11%
36 | CCCc1cc(N2CCCC(C(=O)Nc3ccc(OC)cc3OC)C2)n2ncnc2n1 (stereo not drawn) | -27.7%
37 | O=C(Cn1cncn1)N/N=C/c1cccnc1 | 15.6%
38 | CN1CCN(C(=O)c2cnn3c(C(F)(F)F)cc(-c4cccs4)nc23)CC1 | 0.181%
39 | C/C(=N/NC(=O)CNC(=O)c1ccccn1)c1cccc([N+](=O)[O-])c1 | 9.86%
40 | O=C(NC(=S)Nc1cccnc1)c1cccs1 | 2.64%
41 | COc1ccccc1OCc1nc(C#N)c(N2CCCC2)o1 | 8.7%
42 | CC(=O)Nc1ccc(NC(=O)C2CCC(CNS(=O)(=O)c3cccc4nsnc34)CC2)cc1 (stereo not drawn) | 3.69%
43 | O=S(=O)(c1ccc(Cl)cc1)N1CCC(n2cnc3cc(C(F)(F)F)ccc32)CC1 | -31.2%
44 | O=S(=O)(NCC(Nc1ccccc1)c1ccccc1)c1ccc(Cl)cc1 (stereo not drawn) | -1.6%
45 | Cc1c2cnn(CC(=O)NCCCN3CC(C)CC(C)C3)c(=O)c2c(C)n1Cc1ccccc1Cl (stereo not drawn) | -12.6%
46 | Cc1ccc(S(=O)(=O)Nc2cc(-c3ccc(Cl)cc3)nn2C)cc1 | 5.74%

Row | SMILES | hERG current change (%, negative = inhibition) at 1uM
47 | O=C(NCC(=O)N(c1ccccc1)C(C(=O)NCC1CCCO1)c1ccccc1)c1ccco1 (stereo not drawn) | 13.9%
48 | CCC(=O)Nc1nc2ccccc2n1Cc1ccccc1C | 6.61%
49 | CCC(=O)Nc1c2c(nn1-c1ccc(OC)cc1)CSC2 | 6.51%
50 | Cc1ccnc(NS(=O)(=O)c2ccc(NC(=O)c3ccc(Br)o3)cc2)n1 | 4.22%
51 | CN1CCN(C(=O)CCNC(=O)Cn2ccc3ccccc3c2=O)CC1 | 21.2%
52 | CCCCn1c(O)c(C(CC)=NCc2cc(OC)cc(OC)c2)c(=O)[nH]c1=O | 4.79%
53 | Cc1ccc(CNC(=O)C2CCCN(c3nn4c(=O)cc(C)nc4s3)C2)cc1 (stereo not drawn) | -0.47%
54 | CCOC(=O)C1CCN(CC(O)COCc2ccccc2)CC1.O=C(O)C(=O)O (stereo not drawn) | 3.28%
55 | CC(C)(C)C(=O)CC1(O)C(=O)N(Cc2ccc(Cl)cc2)c2ccccc21 (stereo not drawn) | 13.3%
56 | CC(C(=O)Nc1ccccc1C(=O)N1CCOCC1)N(c1ccc(Cl)cc1)S(C)(=O)=O (stereo not drawn) | 15.7%
57 | Cc1cccc(NC(=O)C2CC(=O)n3ncnc3N2)c1 (stereo not drawn) | 10.4%
58 | O=C(CSc1nncn1-c1ccccc1)NCc1cccs1 | 14.7%
59 | CCC1(CC)C(=O)NC(=O)NC1=Nc1ccccc1 | 13.3%
60 | CCOC(=O)/C(C#N)=C/c1ccc(OC(=O)c2ccccn2)cc1 | -0.898%
61 | Nc1nc(NCc2ccccc2)nc(-c2ccccc2)n1 | 7.82%
62 | S=C1NC(C23CC4CC(CC(C4)C2)C3)=CC(c2ccc3c(c2)OCO3)N1 (stereo not drawn) | 6.57%
63 | CC(C)CN(C(=O)COC(=O)CNC(=O)c1ccccc1F)c1c(N)n(Cc2ccccc2)c(=O)[nH]c1=O | -5.54%
64 | COc1ccc2nc3oc(C(=O)N4CCC5(CC4)OCCO5)cc3cc2c1 | 4.64%
65 | CC(C)CNS(=O)(=O)c1ccc(CCC(=O)Nc2cc(Cl)ccc2Oc2ccccc2)cc1 | 7.85%
66 | COc1cccc(CN2CCNC(=O)C2CC(=O)NCCn2ccc3ccccc32)c1OC (stereo not drawn) | 12.2%
67 | Cl.O[C@@H](c1cc(C(F)(F)F)nc2c(C(F)(F)F)cccc12)[C@H]1CCCCN1 | 13.2%
68 | CCc1cc(-c2onc(C)c2-c2cscn2)c(O)cc1OC | 4.67%
69 | COc1ccc(C2=CC3=C(Br)C(=O)C(C)(OC(=O)c4ccco4)C(=O)C3=CO2)cc1 (stereo not drawn) | 12.7%

Row | SMILES | hERG current change (%, negative = inhibition) at 1uM
70 | CCc1noc(C)c1C(=O)Nc1nc(-c2cc(OC)ccc2OC)cs1 | 2.76%
71 | Cc1ccc(C(=O)NCCSC(C)(C)C)cc1[N+](=O)[O-] | -4.25%
72 | COc1ccccc1N1CCN(Cc2ccc(F)cc2)CC1 | 6.42%
73 | COC(=O)[C@H](CC(C)C)NC(=O)N1CCCCC1 | 11.8%
74 | CC(C)Cn1cc(C(=O)N2CCC3(CC2)OCCO3)c2c3ccccc3n(C)c2c1=O | -1.15%
75 | COCCN(Cc1cn(C)nc1-c1ccc(Oc2ccccc2)cc1)C(C)C | -6.04%
76 | C=CCn1c2ccccc2n2nc(C)c(=O)nc12 | 6.25%
77 | CN(C)S(=O)(=O)c1cccc(NC(=O)COC(=O)CCOc2ccccc2)c1 | 9.82%
78 | CCOC(=O)c1c(S(=O)(=O)NCC(=O)Nc2cccc(C)n2)c(C)n(C)c1C | 20.6%
79 | Cc1ccc(-c2nc(C(=O)O)cs2)cc1 | 12.3%
80 | CN1CCC(=NNC(=O)C(=O)NC2CCCC2)CC1 | 5.03%
81 | COc1cc(C(=O)c2ccccc2)c(OC)cc1C(=O)Nc1ccc(O)cc1 | 10.3%
82 | O=C1c2ccccc2NC(c2cccc(F)c2)N1Cc1ccco1 (stereo not drawn) | -0.722%
83 | CCC(c1nnc(SCC(=O)Nc2ccc(C(N)=O)cc2)n1Cc1ccccc1)N(C)C (stereo not drawn) | 13%
84 | OCCNc1nc(-c2ccccc2)c2cc(Br)ccc2n1 | 7.28%
85 | Cc1csc(SCC(=O)N2CCN(S(=O)(=O)c3ccccc3)CC2)n1 | 11%
86 | CN(C)c1c(F)cc(C(=O)NCc2ccccc2)cc1F | 8.34%
87 | COc1ccccc1/C=C/CN1CCCCC1 | 11%
88 | CC(C)CCN1NC2(CCCC(C)C2)NC1=S (stereo not drawn) | 14.6%
89 | CC(CNC(=O)CCC(=O)N1CCOc2ccc(Cl)cc21)c1ccccc1 (stereo not drawn) | 2.8%
90 | CCC(=O)N(c1ccc(C(=O)O)cc1)c1nc(-c2ccc(OC)cc2)c(C)s1 | 6.17%
